Data: the antibiotic and cytotoxicity screens of Wong et al. (2023)
The list shows a part of the results.

Test system: S. aureus RN4220
Assay: growth inhibition call (relative growth <= 0.2)
Conditions: 50 µM

Growth inhibition call, inactive:
Cc1cc[nH]c(=O)c1, C[C@@H]1C[C@H](O)/C=C/[C@H](O)[C@@H](O)CC(=O)O1, COC(=O)Cc1csc(CC(N)=O)n1, C[C@@H]1CCCCO[C@@H](CN(C)C(=O)c2ccccc2)[C@H](C)CN([C@H](C)CO)C(=O)c2cc(NC(=O)Nc3ccc4c(c3)OCO4)ccc2O1, C[C@@H]1CCCCO[C@@H](CN(C)C(=O)c2ccccc2)[C@H](C)CN([C@@H](C)CO)C(=O)c2cc(NC(=O)Nc3ccc4c(c3)OCO4)ccc2O1, O=C(C[C@H]1CC[C@@H](NS(=O)(=O)c2ccc(F)cc2)[C@H](CO)O1)N1CCC(Cc2ccccc2)CC1, NNC(=O)[C@H]1CCCNC1=O, CC(C)(C)[S@@](=O)N1Cc2cc(C(=O)NCc3ccncc3)nc(-c3cccc(-c4cccc(C#N)c4)c3)c2[C@H]1CCO, COC(=O)C[C@H]1CC[C@H]2[C@@H](COC[C@H](O)CN2S(=O)(=O)c2cn(C)cn2)O1, COCC(=O)N1C[C@H](C)[C@@H](OC)CN(C)C(=O)c2cc(NC(=O)Nc3cccc(F)c3)ccc2OC[C@H]1C, C[C@@H]1CN([C@@H](C)CO)C(=O)Cc2cc(NC(=O)C3CC3)ccc2O[C@@H]1CN(C)C(=O)NC1CCCCC1, N[C@]12CC[C@](C(=O)O)(CC1)C2, N[C@@H](C(=O)O)C1=CCC=CC1, C[C@@H]1CCCCO[C@@H](CN(C)CC2CCCCC2)[C@H](C)CN([C@@H](C)CO)C(=O)c2cc(NC(=O)NC3CCCCC3)ccc2O1, C[C@H](CO)N1C[C@H](C)[C@H](CN(C)C(=O)Cc2ccccc2)OCCCC[C@H](C)Oc2ccc(NC(=O)c3ccccc3)cc2C1=O, Cc1noc(C)c1NC(=O)N(C)C[C@H]1Oc2ccc(NC(=O)CCCN(C)C)cc2C(=O)N([C@@H](C)CO)C[C@H]1C, C[C@@H]1CN([C@@H](C)CO)C(=O)c2cc(NC(=O)c3ccncc3)ccc2O[C@H]1CN(C)Cc1ccncc1, CCO[C@H]1OC(C(=O)N2CCN(Cc3ccc4c(c3)OCO4)CC2)=C[C@@H](C)[C@@H]1CCCOC(=O)NCCCCCC(=O)NO, CN1CC(=O)N=C1NC(=O)[C@H]1CCCN(S(=O)(=O)c2ccc3c(c2)oc(=O)n3C)C1, O[C@H]1CCCC[C@@H]1O, COC(=O)[C@@H](C)N(C#N)c1nc(C)cc(C)n1, C[C@H](O)C#Cc1cnc2c(c1)C(=O)N([C@@H](C)CO)C[C@@H](C)[C@H](CN(C)C(=O)Nc1ccc(C(F)(F)F)cc1)O2, C[C@H](CO)N1C[C@H](C)[C@H](CN(C)C(=O)Nc2ccc(F)cc2)OCCCC[C@H](C)Oc2ccc(NS(=O)(=O)c3ccc(Cl)cc3)cc2C1=O, COc1ccc(NC(=O)N(C)C[C@@H]2Oc3ccc(NS(=O)(=O)c4c(C)noc4C)cc3CC(=O)N([C@@H](C)CO)C[C@@H]2C)cc1, C[C@@H]1CN([C@@H](C)CO)C(=O)Cc2cc(NC(=O)Nc3cccc4ccccc34)ccc2O[C@@H]1CN(C)CC1CCCCC1, COc1ccc(S(=O)(=O)N[C@@H]2CC[C@@H](CC(=O)N3CCC(Cc4ccccc4)CC3)O[C@H]2CO)cc1, C[C@H](CO)N1C[C@H](C)[C@@H](CN(C)C)OCCCC[C@H](C)Oc2ccc(NC(=O)Nc3cccc4ccccc34)cc2C1=O, C[C@@H]1CN([C@@H](C)CO)C(=O)c2cc(NC(=O)Cc3ccccc3)ccc2O[C@@H](C)CCCCO[C@H]1CN(C)Cc1ccc2c(c1)OCO2, COc1cccc(NC(=O)N(C)C[C@H]2Oc3cc(C#Cc4ccncc4)ccc3S(=O)(=O)N([C@@H](C)CO)C[C@H]2C)c1, CCC(=O)Nc1ccc2c(c1)OC[C@H](C)N(C(=O)CN1CCOCC1)C[C@@H](C)[C@H](OC)CN(C)C2=O, CCCNC(=O)N1C[C@@H](O)COC[C@@H]2O[C@H](CC(=O)N3CCOCC3)CC[C@H]21

Growth inhibition call, active:
CC[C@H]1OC(=O)C[C@@H](O)[C@H](C)[C@@H](O[C@@H]2O[C@H](C)[C@@H](O)[C@H](N(C)C)[C@H]2O)[C@@H](CCN2C[C@H](C)C[C@H](C)C2)C[C@@H](C)C(=O)/C=C/C(C)=C/[C@@H]1CO[C@@H]1O[C@H](C)[C@@H](O)[C@@H](OC)[C@H]1OC
